Hit rate of the full screen: of about 340,000 compounds, about 6,900 (2%) were called active. Rule as the data show it: active = inhibition above about 30%; inactive = below that, where a call was filed. This is a selection; strong and weak results do not stand in their true shares. Where no call is shown, the source filed none.

The target in the assay is D(2) dopamine receptor (Homo sapiens) (UniProt P14416). Description: HTS Assay for Allosteric Antagonists of the Human D2 Dopamine Receptor: Primary Screen for Antagonists. Also: 0% is about no effect. The note with it: HEK293 TREx D2 cells, calcium flux, dopamine EC80; at 10 µM; stronger effect = higher value. Put shortly: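 Calcium flux kinetic readout in an inducible HEK293 TREx D2 line plated overnight at 30 C. After 180 s compound exposure, an EC80 dopamine challenge follows with another 180 s kinetic read to detect antagonism.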
Sequence of UniProt P14416 (P14416 whole entry, looked up): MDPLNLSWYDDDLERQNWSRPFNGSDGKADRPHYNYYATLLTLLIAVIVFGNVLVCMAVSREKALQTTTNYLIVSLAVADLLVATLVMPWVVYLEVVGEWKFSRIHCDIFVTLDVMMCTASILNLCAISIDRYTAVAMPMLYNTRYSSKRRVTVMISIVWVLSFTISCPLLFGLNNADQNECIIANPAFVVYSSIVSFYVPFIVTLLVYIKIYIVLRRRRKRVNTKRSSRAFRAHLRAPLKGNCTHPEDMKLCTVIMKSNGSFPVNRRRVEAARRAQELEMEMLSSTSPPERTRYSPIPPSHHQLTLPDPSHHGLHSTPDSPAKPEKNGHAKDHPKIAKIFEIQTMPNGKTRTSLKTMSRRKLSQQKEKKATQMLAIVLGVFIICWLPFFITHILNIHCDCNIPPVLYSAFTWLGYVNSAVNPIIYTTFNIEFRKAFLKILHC
For orientation: Calcium flux is commonly read through the fluorescence of an indicator in the cells.
By inhibition is commonly meant the change of the read-out against control, counted positive when it falls. `COc1ccc(NC(=O)CCn2c(=O)c3cccn3c3cccnc32)c(OC)c1`: the inhibition amounted to 1.5%. `CN(Cc1ccccc1)C(=O)Nc1ccc2c(c1)N(C)C(=O)c1ccccc1S2`: the inhibition stood at 18.6%. Turning to `Cc1ccc(-n2ncc(C(=O)NCc3cccs3)c2C2CCN(C(=O)OC(C)(C)C)CC2)c(C)c1`, the inhibition came to 16.3%. As for `COc1ccc(NC(=O)C2=C(C)Nc3nc(SCc4ccccc4C)nn3C2c2cc(OC)c(O)c(OC)c2)cc1` (stereo not given), the inhibition came to 10.4%.

As for `Cc1noc(C)c1S(=O)(=O)NCCN1CCN(c2ccccc2)CC1`, the inhibition is active: 32.6%. On to `Brc1ccccc1-c1nnc(COc2cccc3cccnc23)o1`, for which the inhibition was active: 38.3%. The value for `Cc1ccc(CSc2nnc(CCNC(=O)OC(C)(C)C)o2)cc1` was 7.99%; that for `COc1ccc(OC)c(NC(=O)CSc2nnc3ccc4ccccc4n23)c1` was 1.84%; that for `O=C(NCc1ccccc1Cl)c1ccc(CSCc2ccccc2Cl)o1` was 18.7%.

For the compound `Fc1ccccc1N1CCN(C2CCCN(Cc3cccc(C(F)(F)F)c3)C2)CC1` (stereo not given), the inhibition was active: 55.4%. Turning to `CCN(CC)CCCNC(=O)c1ccc2c(=O)n(CCc3ccccc3)c(=O)[nH]c2c1`, the inhibition stood at 0.0041%.

In the case of `O=C(c1ccc(F)cc1)N(NC(=O)C(O)(c1ccccc1)c1ccccc1)c1ccccc1`, the inhibition is active: 39.7%.

Turning to `CCc1ccc(-n2cnc3cc(C(=O)NCc4ccc(C)cc4)ccc32)cc1`, the inhibition amounted to 16.1%. Turning to `CCOc1ccc(C(=O)Nc2ccc3nc(SCCOc4ccccc4)sc3c2)cc1`, the inhibition is -6.75%. The value for `CCOC(=O)c1c(C)[nH]c(CCC(=O)NCc2ccc(CC)cc2)c1C` was -11.9%; that for `CC(=O)c1cccc(NC(=O)Cn2nc(C)n3cccc3c2=O)c1` was -8.92%; that for `O=C(CSc1nnc(-c2ccccc2)o1)c1cccc([N+](=O)[O-])c1` was -22.1%. On to `CCN(CC)CCCNC(=O)c1ccc(-c2nc(CN3CCc4ccccc43)c(C)o2)cc1`, for which the inhibition was -8.24%. As to `COC(=O)c1cc(S(=O)(=O)N2CCN(c3cccc(C)c3)C(C)C2)cn1C` (stereo not given), the inhibition was determined as 5.76%.

As to `O=C(Cn1ncc2c3ccccc3n(Cc3ccc(Cl)cc3)c2c1=O)NCc1ccccn1`, the inhibition was found to be 6.7%. Turning to `O=C(CSc1nnc(-c2cccs2)o1)Oc1ccccc1`, the inhibition is -0.371%. For the compound `COc1ccc(N2CCN(C(=O)CCn3nc(C)c(S(=O)(=O)N4CCCC4)c3C)CC2)cc1`, the inhibition was -3.42%.

As to `O=C(NCc1cccnc1)c1ccc(COc2ccccc2Br)cc1`, the inhibition was active: 52.9%.

`CC(=O)N1CCCc2cc(S(=O)(=O)N3CCC(C(=O)Nc4cccc(Cl)c4C)CC3)ccc21`: the inhibition is -2.3%. As to `CCN(CC)C(=O)c1c(-c2ccccc2)c(-c2ccccc2)nn(C)c1=O`, the inhibition is 21.6%. On to `CCc1ccc(C(=O)c2cn(CC(=O)Nc3cc(C)ccc3C)c3nc(C)ccc3c2=O)cc1`, for which the inhibition is -1.42%. As for `Cc1ccc(N2CCN(C(=O)c3c(C)oc4ncn(CC(C)C)c(=O)c34)CC2)c(C)c1`, the inhibition is -9.42%.

With `Cc1ccc(C)c(N2CCN(C(=O)C3CCN(c4nc5ccc(C)cc5[nH]4)CC3)CC2)c1`, the inhibition was -21.1%. For `CCC(C)NC(=O)c1cc(-c2cccc(OC)c2)on1` (stereo not given), the inhibition was 16.7%.

As to `Cc1cccc(CCNC(=O)c2ccc3c(c2)N(Cc2ccccc2F)C(=O)c2ccccc2S3)c1`, the inhibition was 7.31%. Turning to `Cc1cc(-c2ccc(C)c(S(=O)(=O)N3CCN(c4cccc(C(F)(F)F)c4)CC3)c2)on1`, the inhibition is -4.25%. Regarding `CN(C)c1ccc(-c2nc(-c3cc4cc(Cl)ccc4oc3=O)cs2)cc1`, the inhibition is -17.5%. To `CCc1cccc(NC(=O)CCC(=O)N2CCSc3ccccc32)c1` belongs -10.2%. Take `Cc1ccc(Oc2c(C(F)(F)F)oc3c(CN4CCC(C)CC4)c(O)ccc3c2=O)cc1`: the inhibition worked out at 9.53%.

Regarding `O=C(Nc1ccc(S(=O)(=O)Nc2ccccn2)cc1)c1cccc([N+](=O)[O-])c1`, the inhibition was active: 38.8%.

For `COc1cc(NC(=O)Cn2c(=O)n(Cc3ccco3)c(=O)c3sc4ccccc4c32)cc(OC)c1`, the inhibition is -5.09%. As to `COc1ccc(S(=O)(=O)NCC2CCC(C(=O)NCCCN3CCCC3=O)CC2)cc1` (stereo not given), the inhibition is active: 31.9%. As for `COCCCNc1oc(/C=C/c2cc(OC)c(OC)c(OC)c2)nc1C#N`, the inhibition turned out to be 15.6%. As to `Cc1nc2scc(C)n2c(=O)c1S(=O)(=O)Nc1ccc(N2CCOCC2)c(Cl)c1`, the inhibition is 3.19%. On to `CCC(C(=O)Nc1cc(OC)cc(OC)c1)n1nc(-c2ccc(C)c(C)c2)ccc1=O` (stereo not given), for which the inhibition was -9.92%.

On to `CCOc1ccc(C(=O)NCCn2cc(SCC(=O)Nc3ccc4c(c3)OCCO4)c3ccccc32)cc1`, for which the inhibition was -3.41%. To `CCOc1ccc(-c2nc(CSCC(=O)N3CCN(c4ccc(F)cc4)CC3)c(C)o2)cc1` belongs 28.1%; to `CC1CCN(CCCOc2ccc(Cl)cc2Br)CC1`, active: 33.5%; to `O=C(CCC1N=C2c3ccccc3N=C(SCc3ccc(F)cc3)N2C1=O)NCc1ccc(F)cc1` (stereo not given), 17.7%. Turning to `COc1ccc(-n2c(=O)c3c(c4cc(OC)ccc4n3C)n(Cc3cccc(OC)c3)c2=O)cc1`, the inhibition is -1.02%.

`COc1ccc(-c2cc3nc(C)c(CCC(=O)Nc4ccccc4C(C)=O)c(C)n3n2)c(OC)c1`: the inhibition is -10.1%. To `CCc1cccc(C)c1NC(=O)Cn1ccn(-c2cccc(OC)c2)c(=O)c1=O` belongs 1.37%.

`Cc1cccc(Cn2c(SCc3ccc(C(=O)NCCc4ccccc4)cc3)nc3ccncc32)c1`: the inhibition was found to be 9.37%. Regarding `O=C(CCc1nc(CN2CCN(S(=O)(=O)c3ccc(Cl)cc3)CC2)no1)N1CCCCC1`, the inhibition was determined as 3.9%.

For the compound `O=C(CSCc1cccc(F)c1)NCc1ccccc1`, the inhibition was -4.65%. As to `Fc1cccc(-n2ncc3c2ncn2nc(COc4ccc(Cl)cc4)nc32)c1`, the inhibition was -24.5%. Regarding `COc1ccc(Cl)cc1NC(=O)CSc1nccn1Cc1ccco1`, the inhibition is -16.5%. Turning to `Cc1csc2nc(COC(=O)c3ccccc3NC(=O)c3ccc(F)cc3)cc(=O)n12`, the inhibition is 13.2%. In the case of `CCc1ccc(CN2C(=O)c3ccccc3C2C(=O)NCCc2ccc(OC)c(OC)c2)cc1` (stereo not given), the inhibition came to 8.93%. Turning to `CN(CC(=O)Nc1cccc(C(F)(F)F)c1)S(=O)(=O)c1ccc2[nH]c3c(c2c1)CCCC3`, the inhibition was -0.501%. As to `COc1cccc(NC(=O)CSc2nc3ccccc3nc2N2CCOCC2)c1`, the inhibition was -4.96%. Regarding `CCCN(C(=O)CCc1nc(-c2ccccc2F)no1)c1ccc(CC)cc1`, the inhibition amounted to 13%.

Turning to `COc1ccc(NC(=O)c2cc3c(=O)[nH]c4ccccc4c3n2C)cc1Cl`, the inhibition was -3.73%. Consider `COc1ccc(CC(=O)NCc2nc3cccnc3n2Cc2ccc(F)cc2)cc1OC`, for which the inhibition came out at 12%. With `Cc1ccc(C)c(N2CCN(C(=O)c3ccc(CS(=O)(=O)c4ccc(Br)cc4)o3)CC2)c1`, the inhibition stood at 1.99%.
